This passage reports binding signal results from paper PMC12136788.

Sequences and labels used below:
T1: UNK ZnF1-3 (human, UniProt Q9C0B0 31-174)
T1 sequence: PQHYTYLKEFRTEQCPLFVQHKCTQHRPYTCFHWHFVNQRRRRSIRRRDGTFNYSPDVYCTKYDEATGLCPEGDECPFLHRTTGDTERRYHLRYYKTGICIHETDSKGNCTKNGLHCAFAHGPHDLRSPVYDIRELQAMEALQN

B1: 108931087_108931207_2860_3pUTR_ENSMUSG00000033623_ENSMUST00000046975|mouse|control|control (ssRNA)
RNA: GGGAGUUCUACAGUCCGACGAUCAGCCAUACUAAGUUUGAUCUGAUCUGUAAAUUAACUUUACUUGAAUUUGGAGGUUUGUAACUGCUUAAUUUCACCACAUGGGAAAAUACCUAAGUUCUAAUGUAACUGCAUUGUGAGAACCAACAGAGGAUUGAGCAUCA
B2: chr10:33190432:33190433:-_ENSG00000150093_ENST00000302278|hu_hu|FALSE|FALSE (ssRNA)
RNA: GGGAGUUCUACAGUCCGACGAUCUACAUUUUCAAAACCUGCACAUGAGUAAAACCAUGGCAAUAUUGCCCUAAAGCUACCUAACUGUGACUAUGGAAAUUGCUACUUUGCAUUCAGUGUUGUGGGAUUUGCACGGGCAGUACUCAACAGAGGAUUGAGCAUCA
B3: chr11:103733960:103733961:-_ENSMUSG00000034187_ENSMUST00000103075|mus_mus|motif|central (ssRNA)
RNA: GGGAGUUCUACAGUCCGACGAUCCAUUUUAACUUCCAGUCUUCCGGGUCGAAGGAGAGCUUCGUCUAUCAAAUCUGGUCGGUUGGUCAUUCCGAUAACGAGGAUGUUGUUCAGCUGCUCAACGCCAUCGAUCUUGGACAGCAGCAACAGAGGAUUGAGCAUCA
B4: chr11:46405157:46405158:+_ENSG00000110492_ENST00000395566|hu_hu|hu_hu_hu_mus_False|1_78 (ssRNA)
RNA: GGGAGUUCUACAGUCCGACGAUCCCCUCCCCACUUUGGGCACUUGGUGUGGGCGUGAAGGCAGGGCCGUGAUUGACAGAGCUGACAGGAAGACAAAAGGCACUGGUGGGUUAUAUCUUGGGCCUGUGGGAGAGGAGGCGUGGGCAACAGAGGAUUGAGCAUCA
B5: 74120724_74131215_1021_CDS_ENSG00000077809_ENST00000416070|human|control|control (ssRNA)
RNA: GGGAGUUCUACAGUCCGACGAUCUCCUUGAAUGUUAUAUUGAUAAUAAUCAGGAUCUUCUGAUUCUUCCUUUACUGUCACAGCUGCCAUUUCCAGGGAAAUGCCAGAAUCUUCUGUGGGUUCAGUUUUCACUUUGAUGGGGCCCAACAGAGGAUUGAGCAUCA
B6: chr3:10015032:10015033:+_ENSMUSG00000027533_ENSMUST00000029046|mus_mus|mus_mus_mus_hu_True|28_28 (ssRNA)
RNA: GGGAGUUCUACAGUCCGACGAUCGUUUUUACCAUCACAAGUGAUGAUACAAUCUGGCUUGGCCAUUGCGCCCAUUUUUCGCAAAGCUAUUCCCACUCCUAGCUCCUUCAUGUACUCAUCAAAGCCUUUGCUGUCCACCAGGCGCAACAGAGGAUUGAGCAUCA
B7: chr4:148551591:148551592:-_ENSMUSG00000063077_ENSMUST00000060537|mus_hu|mus_mus_mus_hu_False|48_48 (ssRNA)
RNA: GGGAGUUCUACAGUCCGACGAUCACCUGACAAAAUUAAAUAUCCCUGUAAAUUAGACAAUAAGCAGCAGGCAACAAAGUCUUUGCUUUGAAAUAUGUGCCAGGAAAAGUCAUCUUGUUUUUAGAUCUCAAGAGACAGUUCACACAACAGAGGAUUGAGCAUCA
B8: chr5:23655024:23655025:+_ENSMUSG00000028986_ENSMUST00000030841|mus_mus|motif|central (ssRNA)
RNA: GGGAGUUCUACAGUCCGACGAUCAUUGUAGCAAUCCAUUCGCUUUAUGGGGAAAAGCUGAGAACCUCCCAAAAUGUAUACGGCAUUGUCCCAAAACACACAUGCUGCAUCUCUUCGUUUUUCAAAGGGGCAGCGAAUGUCUGUCAACAGAGGAUUGAGCAUCA
B9: 87861455_87862032_296_3pUTR_ENSMUSG00000018379_ENSMUST00000079866|mouse|control|control (ssRNA)
RNA: GGGAGUUCUACAGUCCGACGAUCAGUCGUAGCCGUCGCGACCGUACACCGCAUCUUCCGCGUCUCGCGGGUCCUCGAACUCAACGAAGGCGAAGGGCGGUCCCCCGCGGCGGUUCUUCAGGUCGAUGUCGCGGAUGGCGCCGUCAACAGAGGAUUGAGCAUCA
B10: chr2:5814250:5814251:-_ENSMUSG00000025816_ENSMUST00000102981|mus_hu|mus_mus_mus_hu_True|58_68 (ssRNA)
RNA: GGGAGUUCUACAGUCCGACGAUCUUCCUUUCCGGUUUCUGAAUUUCUGGUAGAACUGCACAGAAUGGUUUAAUAACUUCUAAAAACUUGAUGCCCAUGGCUGCUGCUGGGGAGGCCCAGGGGGAAACCGCGGCCUCGGCGCUGCAACAGAGGAUUGAGCAUCA
B11: chr8:77776764:77776765:+_ENSG00000091656_ENST00000521891|hu_hu|FALSE|FALSE (ssRNA)
RNA: GGGAGUUCUACAGUCCGACGAUCUUUAAGCACGGGAUCCUGUCUUCACUCCUACACACUGAACAUAUCCAUUCGGAUGCUAUUGAAAUUACCAUCUAGGCCAGAAGCAGGCUUAGCCUUCACUUCCAAAGAAUUAUCUAAGUCCAACAGAGGAUUGAGCAUCA
B12: 38862610_38862730_1087_CDS_ENSG00000157540_ENST00000338785|human|control|control (ssRNA)
RNA: GGGAGUUCUACAGUCCGACGAUCAACUAUCUUGAUUGCACUGCGUUUGGGGUUACAAAGAAGGAUAUUUUCAGGUUUUAGAUCACAGUGAAUGAUACUAAGUUCUGGAGUCGCAAGGAAAAGCAGUGCAGUGCACAUCUGUUGCAACAGAGGAUUGAGCAUCA
B13: 72865225_72873886_3810_CDS_ENSG00000009954_ENST00000339594|human|control|control (ssRNA)
RNA: GGGAGUUCUACAGUCCGACGAUCCUUGAUACAGGCAUCAAGCAUCCCAAGCAGCACGUGCAUCCUGGAGAAAGUCUGAGCUUCCCGGAUUGCUGUCUUCCAUUUCUCCAGUGCAGAUGCAACCUUUGCUUCCUCUACCAUUUUCAACAGAGGAUUGAGCAUCA
B14: chr2:179763710:179763711:+_ENSMUSG00000039108_ENSMUST00000058764|mus_hu|FALSE|FALSE (ssRNA)
RNA: GGGAGUUCUACAGUCCGACGAUCCUGCUGUGGCUCUGAGGACAAGUCAAGCUCUGAAACGGGCUGUGGAGAUGGAGAAGAGCUAGGGCUGGAAGCAGCGGCUGAGGCUGGAGGGCUUACCAACUUCUCUAGACCCAGGGAGGCCAACAGAGGAUUGAGCAUCA
B15: chr21:34877999:34878000:-_ENSG00000159131_ENST00000381815|hu_mus|FALSE|FALSE (ssRNA)
RNA: GGGAGUUCUACAGUCCGACGAUCGUCAACUGCAUUGUCAAACUCAACACGAUUUUUAUAUAAUUUGUGAUUAAUUACCCUGGUGGGAAUACCAGCUCGCUCAGCUCGGUCUAAGCCGGCUACGGCGGCUUUGUUGGAGAUGACCAACAGAGGAUUGAGCAUCA
B16: 125006376_125006618_7455_CDS_ENSMUSG00000014444_ENSMUST00000067252|mouse|control|control (ssRNA)
RNA: GGGAGUUCUACAGUCCGACGAUCUUGCUCCCUCCGCAGCUGGAUGCGCACACCAAGGUAGUCCUCUUCCUCAUCUGGCUGCAGCUGCUUCACAGGGUUGGCUUCAGGCCCAUUGGGAGCACGAAUGUACUUGGGGAAGAGAUGCAACAGAGGAUUGAGCAUCA
B17: chr11:87794392:87794393:-_ENSMUSG00000020483_ENSMUST00000020775|mus_hu|FALSE|FALSE (ssRNA)
RNA: GGGAGUUCUACAGUCCGACGAUCCCCCACCCUCCGCCCCAAGCCAUAGAAUCACAGUUCAGUGGAAUAUUCUCCCUGGUACUAGAUCAAUCCCUCCACCUUCCUUCCUACCCCUUUUUCCUUGACAAUCCCAACACUGUCCCCCAACAGAGGAUUGAGCAUCA
B18: 65616592_65618342_1538_CDS_ENSMUSG00000037890_ENSMUST00000041892|mouse|control|control (ssRNA)
RNA: GGGAGUUCUACAGUCCGACGAUCAUGCCGGUAAUCAUUAACGAACUGCCAGUCUUCGAUGAAGAAAUAGUGAAUGAUGCCAGUAUCAGUUCCGUAGAUGAGGAAAUCACUAGUUAGGGCGUGGCAUAAAAUCCGGCACUUAUCCAACAGAGGAUUGAGCAUCA
B19: chr4:101285476:101285477:+_ENSMUSG00000028528_ENSMUST00000094953|mus_hu|FALSE|FALSE (ssRNA)
RNA: GGGAGUUCUACAGUCCGACGAUCGAGAGGCUUGAAGUGAGGGCGGUAGGGCUUGUCUGCCAGUAGGUCACACAUAUAGCCCAGGUAUCUCCUAUGGGAUGGUGAAAGUCCAAUUCCUGGUCGCUUUGCAUAUAGCAAUCGAAUCAACAGAGGAUUGAGCAUCA
B20: 119660307_119660427_2552_CDS_ENSG00000150961_ENST00000280551|human|control|control (ssRNA)
RNA: GGGAGUUCUACAGUCCGACGAUCCUUGGCAAAGAAGUUGAUAAGAGCAUCUGUCUCACAGCUCUUAUAAAGAUCAGCUAGCUGAGAGCUGCAGUUUAAGCCAAGAUUGUGAAUCCGAAGUCUUCUUUGACCACUGAUUGUCGUCAACAGAGGAUUGAGCAUCA
B21: chr7:125341739:125341740:-_ENSMUSG00000030655_ENSMUST00000032891|mus_hu|FALSE|FALSE (ssRNA)
RNA: GGGAGUUCUACAGUCCGACGAUCUCUGUACAGAACAUCUGUUACAUAUGCCUCAGUAAUUGGAGGACCCCGAAUUGGGCUGAAGCGUUCCCCAAUGCUCCUCACCACAGUACUAAAUACCCGGAGAAGUGCAGCCAGCUUUGGCAACAGAGGAUUGAGCAUCA
B22: chr1:29069439:29069440:+_ENSG00000198492_ENST00000541996|hu_mus|motif|central (ssRNA)
RNA: GGGAGUUCUACAGUCCGACGAUCGCUGGUUUUGGAGGAGCAAUAGUAGCUGGAGGCAAACUGCUAGAAGCCACAAUGUUACGGGUGAUGGACCCACUACCAACAGCAGAGCCUACAACUUUUGGAACACUGCUUGCAACUUCUCAACAGAGGAUUGAGCAUCA

Some of the results follow.

The assay addresses T1, UNK ZnF1-3. Kind of assay: nsRBNS (natural sequence RNA bind-n-seq); RBNS binding buffer (assumed for nsRBNS): 25 mM Tris pH 7.5, 150 mM KCl, 3 mM MgCl2, 0.01% Triton X-100, 500 ug/ml BSA, 20 U/ml SUPERase-In, 4 C; UNK is unkempt and MSI1 is Musashi-1; names of the RNAs are library labels; protein concentration not given here; high values mean tight binding.
In turn, B1 registered a binding signal of 1.78 enrichment R.
Then B2, with 0.86 enrichment R; and B3, with 1.26 enrichment R; and B4, with 2.01 enrichment R.
With B5 the figure was 0.531 enrichment R; with B6, 0.637 enrichment R; with B7, 1.07 enrichment R.
B8 displayed a binding signal of 0.974 enrichment R.
As to B9, the binding signal is 0.206 enrichment R.
With B10 the figure was 1.4 enrichment R; with B11, 0.82 enrichment R; with B12, 0.899 enrichment R.
Molecule B13 registered a binding signal of 0.701 enrichment R.
With B14 the figure was 1.55 enrichment R.
With B15 the figure was 1.5 enrichment R; with B16, 0.679 enrichment R; with B17, 1.49 enrichment R.
With B18 the figure was 0.679 enrichment R.
With B19, the binding signal was 0.804 enrichment R.
Then B20, with 0.677 enrichment R; and B21, with 1.01 enrichment R; and B22, with 1.32 enrichment R.
